Experimental data as given in the antibiotic and cytotoxicity screens of Wong et al. (2023).
The list shows a part of the results.

Columns and labels:
HSkMC = human skeletal muscle cells; experiment: cytotoxicity call (relative viability < 0.9); conditions: 10 µM
S. aureus RN4220 = experiment: growth inhibition call (relative growth <= 0.2); conditions: 50 µM

Row | Structure (SMILES) | cytotoxicity call (HSkMC) | growth inhibition call (S. aureus RN4220)
1 | CC(C)NC(=O)N(C)C[C@@H]1Oc2ccc(NC(=O)CCCN(C)C)cc2C(=O)N([C@H](C)CO)C[C@@H]1C | inactive | inactive
2 | C[C@@H]1CCCCO[C@@H](CN(C)C(=O)CCC(F)(F)F)[C@H](C)CN([C@@H](C)CO)C(=O)c2cc(NC(=O)Nc3ccccc3)ccc2O1 | inactive | inactive
3 | O=C(O)[C@H]1Cc2ccccc2CN1 | inactive | inactive
4 | C[C@H](NC(=O)N(C)C[C@@H]1OCc2ccccc2-c2ccccc2C(=O)N([C@H](C)CO)C[C@@H]1C)c1ccccc1 | inactive | inactive
5 | C[C@H](CO)N1C[C@H](C)[C@H](CN(C)Cc2ccncc2)Oc2c(NS(=O)(=O)c3cccs3)cccc2C1=O | inactive | inactive
6 | Cl.N=C(N)n1cccn1 | inactive | active
7 | C[C@@H]1CN([C@H](C)CO)C(=O)c2cccc(NC(=O)Nc3ccc4c(c3)OCO4)c2O[C@H]1CN(C)S(C)(=O)=O | inactive | inactive
8 | O=C(C[C@H]1C[C@H]2c3cc(NC(=O)Cc4ccncc4)ccc3O[C@H]2[C@@H](CO)O1)NCc1cc(F)ccc1F | inactive | inactive
9 | COc1ccc(S(=O)(=O)N(C)C[C@H]2Oc3ccc(NC(=O)CCC(F)(F)F)cc3CC(=O)N([C@H](C)CO)C[C@@H]2C)cc1 | inactive | inactive
10 | C[C@H](CO)N1C[C@H](C)[C@@H](CN(C)Cc2ccc(Oc3ccccc3)cc2)Oc2ccc(NC(=O)Nc3ccc(C(F)(F)F)cc3)cc2C1=O | active | inactive
11 | CNC[C@H]1Oc2cc(C#CC(C)(C)O)ccc2S(=O)(=O)N([C@H](C)CO)C[C@@H]1C | inactive | inactive
12 | COc1ccc([Si](C)(C)[C@@H]2[C@@H](CC(=O)N(CCO)Cc3ccccc3)O[C@]3(C(=O)N(Cc4ccc(N5CCC5=O)cc4)c4ccccc43)[C@H]2C)cc1 | inactive | inactive
13 | COc1ccc2c3c(n(c2c1)C)[C@H](CO)N(CC1CCCC1)C[C@]13CCN(CC1)C(=O)Nc1ccccc1 | inactive | inactive
14 | C[C@@H]1CN([C@H](C)CO)S(=O)(=O)c2ccc(Br)cc2O[C@H]1CN(C)Cc1cccc(C(=O)O)c1 | inactive | inactive
15 | C[C@H]1CN([C@@H](C)CO)S(=O)(=O)c2ccc(C#CC3CCCC3)cc2O[C@H]1CN(C)Cc1cncnc1 | inactive | inactive
16 | COc1ccc(NC(=O)Nc2ccc3c(c2)C(=O)N([C@H](C)CO)C[C@@H](C)[C@@H](CN(C)Cc2ccc(C(F)(F)F)cc2)OCCCC[C@H](C)O3)cc1 | inactive | inactive
17 | C[C@@H]1CN([C@H](C)CO)C(=O)c2cc(NC(=O)Nc3ccccc3)ccc2O[C@@H](C)CCCCO[C@H]1CN(C)Cc1ccc2c(c1)OCO2 | inactive | inactive
18 | CC(C)NC(=O)Nc1ccc2c(c1)C(=O)N([C@H](C)CO)C[C@@H](C)[C@H](CN(C)C(=O)Nc1ccc(C(F)(F)F)cc1)OCCCC[C@H](C)O2 | inactive | inactive
19 | C[C@@H]1CCCCO[C@@H](CN(C)Cc2ccc(F)cc2)[C@H](C)CN([C@@H](C)CO)C(=O)c2cc(NC(=O)Nc3ccccc3)ccc2O1 | inactive | inactive
20 | C[C@@H]1CCCCO[C@H](CN(C)S(C)(=O)=O)[C@@H](C)CN([C@@H](C)CO)C(=O)c2cc(N(C)C)ccc2O1 | inactive | inactive

Row | Structure (SMILES) | cytotoxicity call (HSkMC) | growth inhibition call (S. aureus RN4220)
21 | Cc1noc(C)c1NC(=O)Nc1ccc2c(c1)C(=O)N([C@@H](C)CO)C[C@H](C)[C@@H](CN(C)Cc1ccc3c(c1)OCO3)OCCCC[C@H](C)O2 | inactive | inactive
22 | C[C@@H]1CCCCO[C@@H](CN(C)C)[C@H](C)CN([C@H](C)CO)C(=O)c2cc(NC(=O)Nc3cccc4ccccc34)ccc2O1 | inactive | inactive
23 | COc1ccc(NC(=O)N(C)C[C@H]2OCCCC[C@H](C)Oc3ccc(NS(=O)(=O)c4cccs4)cc3C(=O)N([C@H](C)CO)C[C@@H]2C)cc1 | inactive | inactive
24 | COC(=O)[C@H](Cc1ccccc1)N1CC2=CC(=O)[C@H](C3CC3)[C@H]2[C@@H]1[C@@H](O)CCn1cc(-c2cccc(/C=C/C(=O)NO)c2)nn1 | inactive | inactive
25 | C[C@@H]1CCCCO[C@H](CN(C)C(=O)Nc2cccc3ccccc23)[C@@H](C)CN([C@H](C)CO)C(=O)c2cc(NC(=O)C3CCCCC3)ccc2O1 | inactive | inactive
26 | Cc1oc(C(C)(C)C)cc1C(=O)Nc1ccc(C(C)C)cc1 | inactive | inactive
27 | C[C@@H]1O[C@@H](OC[C@H]2O[C@@H](OCCc3ccccc3)[C@H](O)[C@@H](O)[C@@H]2O)[C@H](O)[C@H](O)[C@H]1O | inactive | inactive
28 | C[C@H](NC(=O)[C@@H]1CCCC[C@H]1C(=O)O)c1ccccc1.C[C@H](NC(=O)[C@H]1CCCC[C@H]1C(=O)O)c1ccccc1 | inactive | inactive
29 | C[C@@H]1CN([C@H](C)CO)C(=O)c2cc(NC(=O)C3CCCCC3)ccc2O[C@@H](C)CCCCO[C@H]1CN(C)Cc1ccc(C(F)(F)F)cc1 | inactive | inactive
30 | C[C@@H]1CN([C@@H](C)CO)C(=O)c2cc(NC(=O)CCCN(C)C)ccc2O[C@@H]1CN(C)Cc1ccc(C(=O)O)cc1 | inactive | inactive
31 | C[C@H](CO)N1C[C@H](C)[C@@H](CN(C)S(=O)(=O)c2ccc(Cl)cc2)OCCCC[C@H](C)Oc2ccc(NC(=O)c3ccncc3)cc2C1=O | inactive | inactive
32 | COc1cc(C=CC(=O)O)cc(OC)c1OC | inactive | inactive
33 | COc1ccc(C(=O)Nc2ccc(CN3C(=O)[C@]4(O[C@H](CCO)[C@@H]([Si](C)(C)F)[C@@H]4C)c4ccccc43)cc2)cc1 | inactive | inactive
34 | C[C@H](CO)N1C[C@H](C)[C@@H](CN(C)Cc2ccc(C(=O)Nc3ccccc3N)cc2)Oc2ccc(NC(=O)NC3CCCCC3)cc2CC1=O | inactive | inactive
35 | C[C@@H]1CN([C@H](C)CO)C(=O)c2cc(NC(=O)Cn3cnnn3)ccc2O[C@@H]1CN(C)S(=O)(=O)c1cn(C)cn1 | inactive | inactive
36 | C[C@@H]1CN([C@H](C)CO)C(=O)Cc2cc(NC(=O)C3CCCCC3)ccc2O[C@H]1CN(C)Cc1ccc(Cl)c(Cl)c1 | inactive | inactive
37 | CCCCCCCCCCCCCCCCCCCCCCCCCCCCO | inactive | inactive
38 | C[C@@H]1CN([C@@H](C)CO)C(=O)c2cc(NC(=O)C3CCCCC3)ccc2O[C@@H](C)CCCCO[C@H]1CN(C)C(=O)C1CCCCC1 | inactive | inactive
39 | CC(C)(C)S(=O)N1Cc2cc(C(=O)N[C@@H]3CCN(Cc4ccccc4)C3)nc(-c3cccc(-c4cccc(F)c4)c3)c2[C@@H]1CCO (stereo partly specified) | inactive | inactive
40 | C[C@H](CO)N1C[C@H](C)[C@@H](CN(C)Cc2ccc(Oc3ccccc3)cc2)Oc2ccc(NS(=O)(=O)c3ccccc3)cc2C1=O | inactive | inactive

Row | Structure (SMILES) | cytotoxicity call (HSkMC) | growth inhibition call (S. aureus RN4220)
41 | C[C@@H]1CN([C@@H](C)CO)C(=O)Cc2cc(NS(C)(=O)=O)ccc2O[C@H]1CN(C)S(=O)(=O)c1ccccc1 | inactive | inactive
42 | CC(C)C#Cc1ccc2c(c1)O[C@@H](CN(C)C(=O)Cc1ccccn1)[C@@H](C)CN([C@@H](C)CO)S2(=O)=O | inactive | inactive
43 | Cc1cccc(Oc2ccc(NC(=O)C3CCC(C)CC3)cc2)c1 (stereo unspecified) | inactive | inactive
44 | COc1ccc(NC(=O)N(C)C[C@H]2OCc3cnnn3CCCC(=O)N([C@H](C)CO)C[C@H]2C)c(OC)c1 | inactive | inactive
45 | Cc1noc(C)c1NC(=O)N(C)C[C@@H]1OCCCC[C@H](C)Oc2ccc(NC(=O)c3ccccc3)cc2C(=O)N([C@@H](C)CO)C[C@@H]1C | inactive | inactive
46 | COc1ccccc1[C@@H](NC(=O)C1CCN(CCc2ccc(Br)cc2)CC1)c1ccccn1 | inactive | inactive
47 | COc1ccc(NC(=O)N(C)C[C@@H]2Oc3ncc(-c4cccc(C(F)(F)F)c4)cc3C(=O)N([C@H](C)CO)C[C@@H]2C)cc1 | inactive | inactive
48 | C[C@H](CO)N1C[C@H](C)[C@@H](CN(C)Cc2ccc(C(=O)Nc3ccccc3N)cc2)Oc2c(NC(=O)Nc3ccccc3)cccc2C1=O | inactive | inactive
49 | C[C@H]1CN([C@@H](C)CO)C(=O)c2cc(NS(=O)(=O)c3ccc(F)cc3)ccc2O[C@@H]1CN(C)C(=O)Nc1ccc(C(F)(F)F)cc1 | inactive | inactive
50 | COc1ccc(S(=O)(=O)Nc2ccc3c(c2)C(=O)N([C@H](C)CO)C[C@H](C)[C@@H](CN(C)Cc2ccc(-c4ccccc4)cc2)O3)cc1 | inactive | inactive
51 | CN(C)C(=O)c1cccc(-c2cccc(-c3nc(C(=O)N4CCCCC4)cc4c3[C@H](CCO)N([S@@](=O)C(C)(C)C)C4)c2)c1 | inactive | inactive
52 | CCS(=O)(=O)Nc1ccc2c(c1)C(=O)N(C)[C@@H]1CC[C@@H](CC(=O)NCc3ccccc3F)O[C@H]1CO2 | inactive | inactive
53 | COc1ccc([Si](C)(C)[C@@H]2[C@@H](CCO)O[C@]3(C(=O)N(Cc4ccc(N5CCCCC5=O)cc4)c4ccccc43)[C@H]2C)cc1 | inactive | inactive
54 | COc1ccc(CN(C)C[C@H]2OCCCC[C@H](C)Oc3ccc(NC(=O)Nc4cccc5ccccc45)cc3C(=O)N([C@H](C)CO)C[C@H]2C)cc1 | active | inactive
55 | CCC(=O)OC1(C(=O)CCl)C(C)CC2C3CCC4=CC(=O)C=CC4(C)C3(F)C(O)CC21C (stereo unspecified) | inactive | inactive
56 | C=CCN(C(=O)[C@H]1N(C(C)(C)CO)C(=O)[C@H]2[C@H](C(=O)O)[C@@H]3C=C[C@@]21O3)C(C)(C)C | inactive | inactive
57 | C[C@@H]1CN([C@@H](C)CO)S(=O)(=O)c2ccc(C#Cc3ccc(F)cc3)cc2O[C@@H]1CN(C)C(=O)CN(C)C | inactive | inactive
58 | COc1cc(F)c(F)c(Nc2ccc(I)cc2F)c1NS(=O)(=O)C1(C[C@H](O)CO)CC1 | inactive | active
